Source: PubChem BioAssay AID504332 (National Center for Advancing Translational Sciences (NCATS), 2011)
Screen size: about 350,000 compounds; about 31,000 (8.9%) were called active. Inconclusive means that the source gave no clear call. Such entries were picked first, then a sample of the others. Calls come from the whole dose curve; as a rule, active = well fitted inhibition curve with a large enough effect; inconclusive = small, poorly fitted or top-dose-only effect; inactive = no such curve, though single readings can be large or run the other way. Where the call is inconclusive, the potency comes from a doubtful curve fit.

Target: Histone-lysine N-methyltransferase EHMT2 (Homo sapiens) (UniProt Q96KQ7)
Sequence of UniProt Q96KQ7 (Q96KQ7 whole entry, looked up): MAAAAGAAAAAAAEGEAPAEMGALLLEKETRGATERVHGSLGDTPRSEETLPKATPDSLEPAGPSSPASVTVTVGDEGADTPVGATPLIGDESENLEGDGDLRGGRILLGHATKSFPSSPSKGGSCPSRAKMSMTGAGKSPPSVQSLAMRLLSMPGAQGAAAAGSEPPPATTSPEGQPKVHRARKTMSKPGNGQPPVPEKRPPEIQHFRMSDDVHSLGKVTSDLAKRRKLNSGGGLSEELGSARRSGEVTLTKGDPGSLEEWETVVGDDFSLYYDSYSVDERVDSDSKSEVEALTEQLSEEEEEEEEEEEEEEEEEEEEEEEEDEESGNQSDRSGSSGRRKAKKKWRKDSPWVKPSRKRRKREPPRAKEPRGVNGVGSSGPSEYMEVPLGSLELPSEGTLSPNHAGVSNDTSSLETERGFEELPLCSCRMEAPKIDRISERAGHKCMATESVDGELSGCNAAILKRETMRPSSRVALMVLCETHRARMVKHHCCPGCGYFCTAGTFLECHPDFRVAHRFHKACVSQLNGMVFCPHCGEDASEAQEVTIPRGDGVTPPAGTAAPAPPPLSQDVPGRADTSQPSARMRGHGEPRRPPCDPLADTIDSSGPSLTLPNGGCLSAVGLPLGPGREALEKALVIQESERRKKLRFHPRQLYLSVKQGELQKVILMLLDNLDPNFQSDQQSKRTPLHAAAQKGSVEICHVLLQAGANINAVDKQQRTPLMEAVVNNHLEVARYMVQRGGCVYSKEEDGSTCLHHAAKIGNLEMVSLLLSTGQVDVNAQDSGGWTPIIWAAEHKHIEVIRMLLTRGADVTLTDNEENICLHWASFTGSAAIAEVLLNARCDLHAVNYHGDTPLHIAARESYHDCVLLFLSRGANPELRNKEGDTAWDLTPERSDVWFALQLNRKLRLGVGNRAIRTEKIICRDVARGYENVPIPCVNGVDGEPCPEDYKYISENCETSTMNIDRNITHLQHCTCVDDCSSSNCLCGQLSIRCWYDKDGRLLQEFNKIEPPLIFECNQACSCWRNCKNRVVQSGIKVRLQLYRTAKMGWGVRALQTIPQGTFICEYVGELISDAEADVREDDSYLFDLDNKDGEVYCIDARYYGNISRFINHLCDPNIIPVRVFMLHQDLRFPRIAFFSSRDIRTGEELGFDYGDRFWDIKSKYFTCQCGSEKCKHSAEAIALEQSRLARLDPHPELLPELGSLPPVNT
Experiment: qHTS Assay for Inhibitors of Histone Lysine Methyltransferase G9a; note: nearly all actives have a fitted effect of over 75% in size
Conditions: G9a H3K9 monomethylation, AlphaScreen, 2 h; activity, negative = inhibition: at 59 µM (top of the series) unless noted
In short: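 AlphaScreen detection with an anti-monomethyl H3K9 antibody quantified product after a 2 h room-temperature reaction containing 500 nM biotinylated H3K9 peptide, 20 µM SAM and 20 nM enzyme, which had been preincubated 15 min with compound.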
% is set by controls: 0 for no effect and ±100 for the full control effect; potency is the fitted concentration of half-maximal effect; tags give direction and shape of the fitted curve.

Structure (SMILES)	Potency	activity, negative = inhibition
Nc1nc(Nc2cccc(F)c2)nc(NCc2ccco2)c1[N+](=O)[O-]	inactive	–
COc1cc(NC2c3ccccc3C(=O)N2Cc2ccc3c(c2)OCO3)cc(OC)c1OC (stereo not drawn)	inconclusive: 89.1 µM [inhibitor, single point]	–
CCOC(=O)c1ccc(NC(=O)c2cc3ccccc3o2)cc1	inactive	–
O=C(Cc1ccc(F)cc1)NCCc1csc2nc(-c3ccc(Cl)cc3)nn12	inactive	–
COc1ccccc1-n1c(CNc2ccc(F)cc2)nnc1SCC(=O)Nc1cc(C)on1	inconclusive: 39.8 µM [inhibitor, single point]	–
CCCCCCCCCCNC(=O)C(=O)Nc1ccccn1	inconclusive: 1.41 µM [inhibitor, single point]	–
COCCn1c(=S)[nH]c2cc(C(=O)N3CCc4ccccc43)ccc2c1=O	–	inconclusive: -56% [inhibitor] [at 12.7 µM]
O=C(CSc1nnnn1-c1ccc(O)cc1)Nc1ccc(N2CCOCC2)c(Cl)c1	inactive	–
CCOC(=O)c1[nH]c2ccccc2c1NC(=O)c1ccc(S(=O)(=O)N2CCCC2)cc1	inconclusive: 79.4 µM [inhibitor, single point]	–
Cc1[nH]nc2c1C(c1cccnc1)N(c1ccc(Br)cc1)C2=O (stereo not drawn)	inconclusive: 10 µM [inhibitor, partial curve, poor fit]	–
COc1ccc(/C=C2/SC(=S)N(CCCC(=O)N3CCN(C)CC3)C2=O)cc1	inconclusive: 89.1 µM [inhibitor, single point]	–
O=C(/C=C/c1ccc(O)c([N+](=O)[O-])c1)c1ccc2ccccc2c1	inconclusive: 12.6 µM [inhibitor, partial curve, poor fit]	–
COc1ccc(C(=O)c2no[n+]([O-])c2C(=O)c2ccc(OC)cc2)cc1	active: 8.91 µM	–
Cc1cc(C(=O)CN2C(=O)NC(Cc3c[nH]c4ccccc34)C2=O)c(C)n1C (stereo not drawn)	active: 50.1 µM	–
O=c1nc2ccc(Cl)cn2c2ccc(S(=O)(=O)N3CCOCC3)cc12	inconclusive: 1.78 µM [inhibitor, partial curve, poor fit]	–
CC1=C(C)NC(=S)SC1	inconclusive: 39.8 µM [inhibitor, single point]	–
CC(=O)Nc1nnc(-c2c(-c3ccccc3Cl)noc2C)o1	inactive	–
CCOC(=O)C1(Cc2ccc(OC)cc2)CCN(C(=O)c2ccc3[nH]ccc3c2)CC1	inconclusive: 79.4 µM [inhibitor, single point]	–
CCOC(=O)Cn1c(=O)cc(C)c2c(C)nn(-c3cccc(F)c3)c21	inactive	–
CS(=O)(=O)c1nc(S(=O)(=O)c2ccc(Cl)cc2)c(NCc2ccccn2)s1	active: 39.8 µM	–
CCC(=O)NC(NC(=S)Nc1ccc(S(N)(=O)=O)cc1)C(Cl)(Cl)Cl (stereo not drawn)	active: 8.91 µM	–
CCOC(=O)C1=C(O)/C(=C\c2ccc(CNS(=O)(=O)c3ccc(Br)cc3)o2)N=C1C	inconclusive: 25.1 µM [inhibitor, single point]	–
Cc1c(C(=O)O)oc2ccc(S(=O)(=O)N3CC(C)CC(C)C3)cc12 (stereo not drawn)	inactive	–
CCCCn1c(SCc2ccccc2C#N)nc2c(sc3ccccc32)c1=O	inactive	–

Structure (SMILES)	Potency	activity, negative = inhibition
COc1ccccc1CN1CCC2(CC1)CCN(C(=O)c1cccn1C)CC2	–	inactive: -0.0773% [at 12.7 µM]
O=C(c1ccc(Cl)c(S(=O)(=O)N2CCCC2)c1)N1CCN(c2ccc(F)cc2)CC1	active: 44.7 µM	–
CC1=C(C(=O)Nc2ccccc2C)C(c2ccc[nH]2)n2ncnc2N1 (stereo not drawn)	inactive	–
COc1ccc(N(C)S(=O)(=O)c2ccc(Cl)c(C(=O)NNC(=O)c3ccccc3O)c2)cc1	inactive	–
COCCn1c(=O)c2c(nc3n2CC(C)CN3Cc2ccccc2)n(C)c1=O (stereo not drawn)	inactive	–
COc1ccc(C(=O)NC(=S)Nc2ccc(S(=O)(=O)Nc3cc(C)on3)cc2)cc1OC	inactive	–
COc1ccc(CNC(=O)C2CCN(S(=O)(=O)Cc3ccccc3)CC2)cc1	inactive	–
O=C(CCCSc1nc2sc3c(c2c(=O)[nH]1)CCC3)NCCCO	inconclusive: 89.1 µM [inhibitor, single point]	–
N#Cc1cc2ccccc2nc1SCC(=O)NC1CC1	active: 50.1 µM	–
CN(C)S(=O)(=O)c1ccc(N2CCCC2)c(C(=O)OCC(=O)NC2(C#N)CCCCC2)c1	inconclusive: 15.8 µM [inhibitor, partial curve]	–
CCNC(=S)N1CCN(C(c2ccccc2)c2ccccc2)CC1	inactive	–
CC1CN(C(=S)NC(=O)c2ccc([N+](=O)[O-])cc2)CC(C)O1 (stereo not drawn)	active: 39.8 µM	–
C/C(=N\NC(=O)c1ccccc1F)c1ccc2c(c1)Nc1ccccc1S2	inconclusive: 79.4 µM [inhibitor, partial curve, poor fit]	–
CCc1ccc(S(=O)(=O)Nc2ccc3oc(C)c(C(=O)OCCOC)c3c2)cc1	inactive	–
CCn1c(SCC(=O)Nc2ccc(C)cc2)nnc1-c1ccccn1	active: 50.1 µM	–
CCCCN(c1ccccc1)S(=O)(=O)c1cc2c3c(c1)C(C)C(=O)N3CCC2 (stereo not drawn)	inactive	–
COc1ccc(NC(=O)c2ccc(-c3nc(CSc4ccccc4)c(C)o3)cc2)c(OC)c1	inconclusive: 5.62 µM [inhibitor, single point]	–
CCN(c1ccc(OC)cc1)S(=O)(=O)c1cc(-c2cc(C)no2)ccc1C(C)C	inconclusive: 89.1 µM [inhibitor, partial curve, poor fit]	–
CC(C)(C)c1ccc(OC(=O)Nc2ccc(O)c(C(=O)O)c2)cc1	–	inconclusive: -60.4% [inhibitor]
CCC(C)N1CCN(S(=O)(=O)c2ccc3ccccc3c2)CC1 (stereo not drawn)	inconclusive: 89.1 µM [inhibitor, single point]	–
O=S(=O)(NC1CC1)c1cccc(S(=O)(=O)N2CCCC2)c1	inconclusive: 0.708 µM [inhibitor, full curve, poor fit]	–
CCOC(=O)c1sc(=S)n(C)c1NC(=O)c1ccccc1	active: 2.82 µM	–
CCCC1=Nc2cc(C(=O)NCCN3CCCC3)ccc2Sc2ccccc21	active: 79.4 µM	–
O=C(COC(=O)c1cc(S(=O)(=O)N2CCOCC2)c(Cl)cc1Cl)NC1CC1	active: 0.631 µM	–
